# Results taken from PubChem BioAssay AID588342 (National Center for Advancing Translational Sciences (NCATS), 2011).
# Among all 360,000 compounds or so, about 25,000 (6.9%) were called active. This list was built around the results that the source calls inconclusive (neither active nor inactive); the mix of calls is not that of the screen. Calls come from the whole dose curve; as a rule, active = well fitted inhibition curve with a large enough effect; inconclusive = small, poorly fitted or top-dose-only effect; inactive = flat fitted curve, though single readings scatter. Potencies beside an inconclusive call are fits to weak or partial responses and may not hold up.
# Molecular target: Luciferin 4-monooxygenase (Photinus pyralis) (UniProt P08659)
# Sequence of UniProt P08659 (P08659 whole entry, looked up): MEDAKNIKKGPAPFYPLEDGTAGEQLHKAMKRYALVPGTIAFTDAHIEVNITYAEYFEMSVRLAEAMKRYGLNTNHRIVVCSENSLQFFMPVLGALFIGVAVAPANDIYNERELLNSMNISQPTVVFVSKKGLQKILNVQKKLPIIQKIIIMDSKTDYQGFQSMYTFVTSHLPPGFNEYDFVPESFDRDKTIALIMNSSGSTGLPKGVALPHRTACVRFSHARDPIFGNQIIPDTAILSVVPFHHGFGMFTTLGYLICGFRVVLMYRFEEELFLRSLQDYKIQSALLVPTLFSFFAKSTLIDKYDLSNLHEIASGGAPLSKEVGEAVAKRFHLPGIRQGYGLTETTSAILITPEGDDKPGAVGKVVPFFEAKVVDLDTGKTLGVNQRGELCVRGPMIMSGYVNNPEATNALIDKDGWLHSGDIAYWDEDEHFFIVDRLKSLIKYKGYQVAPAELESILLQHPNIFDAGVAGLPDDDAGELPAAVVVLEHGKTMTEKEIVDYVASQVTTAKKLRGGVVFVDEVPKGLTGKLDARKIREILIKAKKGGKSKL
# Assay: qHTS profiling assay for firefly luciferase inhibitor/activator using purifed enzyme and Km concentrations of substrates (counterscreen for miR-21 project); note: nearly all actives have a fitted effect of over 55% in size
# Settings: purified FLuc, luminescence inhibition; series mostly up to 57.5 µM
# How it was run: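 Biochemical qHTS of compounds, final roughly 60 µM downward over six points, against 10 nM purified firefly luciferase using Km concentrations of substrates (10 uM D-luciferin, 10 uM ATP) in Tris acetate pH 7.5 buffer; luminescence output.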
# Potency is the fitted concentration of half-maximal effect; tags give direction and shape of the fitted curve.
row,Structure (SMILES),Potency
1,COc1ccc(/C=C(\C#N)C(=O)NCCc2ccccc2)cc1OCc1ccccc1,inactive
2,CCN(CC(=O)NCc1ccc(Cl)cc1)Cc1cc(=O)n2ccsc2n1,inactive
3,CC(C)NS(=O)(=O)c1ccc(OCC(=O)N2CCN(c3ccccc3F)CC2)cc1,inactive
4,COC(=O)C1CCN(C(=O)c2cc3ccccc3oc2=O)CC1,"inconclusive: 21.3 µM [inhibitor, partial curve]"
5,CCCc1c(C)[nH]c2nc3ccccc3n2c1=O,"inconclusive: 33.8 µM [inhibitor, single point]"
6,O=[N+]([O-])c1cccc(Oc2cnccn2)c1,inactive
7,NC(=O)c1ccsc1NC(=O)COc1ccccc1,active: 12 µM
8,Cc1cc(=O)[nH]c2n[nH]c(-c3ccccc3)c12,"inconclusive: 37.9 µM [inhibitor, single point]"
9,O=S1(=O)N=C(Nc2cccc(C(F)(F)F)c2)c2ccccc21,inactive
10,Cc1cc(C(=O)NCc2ccco2)c2ccccc2n1,inactive
11,CCCCOC(=O)c1nnc(-c2ccc(Cl)cc2)o1,"inconclusive: 30.1 µM [inhibitor, single point]"
12,Cc1ccc(CSCC(=O)Nc2ccccc2C(=O)O)cc1,active: 12 µM
13,Clc1cccc(Cl)c1COn1nnc2ccccc21,"inconclusive: 23.9 µM [inhibitor, single point]"
14,CCOc1ccc(Nc2ncnc(N)n2)cc1,"inconclusive: 21.3 µM [inhibitor, partial curve, poor fit]"
15,CC1CCC(NC(=O)Cn2ncc3ccccc32)CC1 (stereo unspecified),"inconclusive: 30.1 µM [inhibitor, single point]"
16,NC(=S)NN=C1c2cc(OCCN3CCOCC3)ccc2-c2ccc(OCCN3CCOCC3)cc21,"inconclusive: 4.78 µM [inhibitor, full curve, poor fit]"
17,O=C(C[n+]1cc(Br)cc(Br)c1)c1ccc(-c2ccccc2)cc1,"inconclusive: 37.9 µM [inhibitor, partial curve, poor fit]"
18,CC(=O)N1CCc2cc(S(=O)(=O)CCC(=O)N3CCN(c4cc(C)ccc4C)CC3)ccc21,inactive
19,COc1ccc(C(=O)NNC(=O)C(Cc2ccc(O)cc2)NC(=O)c2ccccc2NC(=O)c2ccc(OC)cc2)cc1 (stereo unspecified),"inconclusive: 6.75 µM [inhibitor, partial curve]"
20,C/C(=N\NC(=O)c1cccc(N/N=C(\C)c2ccncc2)c1)c1ccncc1,"inconclusive: 26.9 µM [inhibitor, partial curve]"
21,CC1(C)Oc2ccc(NC(=O)C3COc4ccccc4O3)cc2O1 (stereo unspecified),active: 1.9 µM
